The campaign covered roughly 310,000 compounds. About 14,000 (4.5%) showed an effect of 50% or more. The effect is printed as a negative number. The list shows a part of the results.
Biological target: human ether-à-go-go-related gene (hERG) potassium channel (human, UniProt Q12809)
Assay: primary screen, population patch clamp on CHO cells stably expressing hERG
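Note: peak tail current of the secondary pulse compared with the same well before compound.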

human ether-à-go-go-related gene (hERG) potassium channel, sequence (Q12809 whole entry, looked up): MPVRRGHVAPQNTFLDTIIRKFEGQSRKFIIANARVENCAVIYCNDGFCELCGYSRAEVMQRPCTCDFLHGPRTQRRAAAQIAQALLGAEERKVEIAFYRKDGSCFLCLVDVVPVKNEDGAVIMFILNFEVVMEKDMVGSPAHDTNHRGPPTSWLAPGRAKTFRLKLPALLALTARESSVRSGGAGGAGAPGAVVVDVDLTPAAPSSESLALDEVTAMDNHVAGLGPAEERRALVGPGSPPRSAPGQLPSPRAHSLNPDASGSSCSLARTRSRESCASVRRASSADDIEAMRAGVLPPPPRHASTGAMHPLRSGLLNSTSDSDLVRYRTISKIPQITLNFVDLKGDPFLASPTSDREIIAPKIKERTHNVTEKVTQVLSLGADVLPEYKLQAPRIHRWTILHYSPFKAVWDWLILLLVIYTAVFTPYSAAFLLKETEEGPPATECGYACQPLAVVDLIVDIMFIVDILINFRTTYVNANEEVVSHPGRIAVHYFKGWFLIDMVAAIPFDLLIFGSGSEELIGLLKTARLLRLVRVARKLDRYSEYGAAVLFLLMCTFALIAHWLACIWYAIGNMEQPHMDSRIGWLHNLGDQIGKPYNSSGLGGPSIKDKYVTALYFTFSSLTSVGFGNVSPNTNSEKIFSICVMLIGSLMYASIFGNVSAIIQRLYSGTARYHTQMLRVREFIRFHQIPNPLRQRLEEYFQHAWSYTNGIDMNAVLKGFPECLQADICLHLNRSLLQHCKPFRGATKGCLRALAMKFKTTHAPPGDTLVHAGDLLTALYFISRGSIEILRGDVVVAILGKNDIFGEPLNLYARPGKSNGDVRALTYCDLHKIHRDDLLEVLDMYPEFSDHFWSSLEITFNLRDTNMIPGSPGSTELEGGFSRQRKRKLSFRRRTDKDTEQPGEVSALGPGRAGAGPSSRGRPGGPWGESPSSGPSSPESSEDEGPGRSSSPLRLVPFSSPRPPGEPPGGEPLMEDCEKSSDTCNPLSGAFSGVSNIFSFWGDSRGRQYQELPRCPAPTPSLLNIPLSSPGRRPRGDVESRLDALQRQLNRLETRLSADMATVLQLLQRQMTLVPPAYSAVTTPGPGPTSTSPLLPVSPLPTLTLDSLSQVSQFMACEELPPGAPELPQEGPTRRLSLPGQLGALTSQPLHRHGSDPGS

Compound | hERG current change (%, negative = inhibition) at 10uM
COc1cc(O)c2c(=O)cc(-c3ccccc3)oc2c1 | 0.195%
COC(C(=O)Nc1c(F)cccc1F)c1ccccc1 (stereo not drawn) | 12.1%
Cc1ccccc1Cn1c(-c2ccc(=O)[nH]c2)nc2ccccc21 | -11.4%
O=C(N1CCCCC1)N1CCN(S(=O)(=O)c2cccc([N+](=O)[O-])c2)CC1 | -15.8%
Cc1cccc(NC(=S)N2CCCCC2c2cccnc2)c1C (stereo not drawn) | -7.57%
CCn1ccnc1CN(C)C(=O)C1CCC(=O)N(CCc2cccc(F)c2)C1 (stereo not drawn) | -50.7%
C#CCOCCOCCOCCNc1nc(N2CCN(C(=O)C([C@@H](C)CC)n3cc(C(N)COC(=O)C(F)(F)F)nn3)CC2)nc(N2CCN(C(=O)[C@H](CCC(=O)O)n3cc(C(N)CC(C)C)nn3)CC2)n1.Cl (stereo partly drawn) | 13.5%
CC(C)(C)c1cc(C(c2cccnc2)N2CCN(CCO)CC2)cc(C(C)(C)C)c1O (stereo not drawn) | -53.8%
c1cc(N2CCCC2)ccc1C(c1nnnn1C1CCCCC1)N1CCOCC1 (stereo not drawn) | 16.7%
Cc1c(C(c2ccc(F)cc2)c2c(C)n(C)n(-c3ccccc3)c2=O)c(=O)n(-c2ccccc2)n1C | 9.79%
O=C(COc1ccc(Br)cc1)NCCCNC(=O)c1cnccn1 | -10.2%
Cc1cccc(C)c1NC(=O)CN(c1ccccn1)S(=O)(=O)c1ccc(F)cc1 | 19.1%
O=[N+]([O-])c1cccc(-c2nnc(-c3ccccc3F)o2)c1 | 1.55%
Cc1ccc(C2C(C#N)=C(N)N(N(C)C)C3=C2C(=O)CCC3)cc1 (stereo not drawn) | -15.9%
CCn1c(SCC(=O)N2CCN(c3ccccc3)CC2)nnc1-c1ccoc1C | -27.5%
COc1ccc(C(C(=O)NC(C)(C)C)N(C(=O)CCC(=O)Nc2cc(C)on2)c2ccc(C)c(C)c2)cc1 (stereo not drawn) | -8.53%
CC(C)(C)N(Cc1ccccc1)C(=O)COC(=O)CN1C(=O)NC2(CCCC2)C1=O | -0.475%
CCC1Sc2ccc(S(=O)(=O)CCC(=O)Nc3ccc(C(=O)OC)cc3)cc2NC1=O (stereo not drawn) | -4.39%
COc1ccc(-c2csc3ncnc(Cl)c23)cc1 | 7.9%
COc1ccccc1CN(C)S(=O)(=O)c1cccs1 | 4.72%
Cc1cccnc1CCNC(=O)CC1C(=O)NCCN1CC1CCCCC1 (stereo not drawn) | 19.2%

Compound | hERG current change (%, negative = inhibition) at 10uM
N=C1S/C(=C\c2ccc(-c3cccc(Cl)c3)o2)C(=O)N1c1nccs1 | 11.6%
CCCCOC(=O)c1cccc(NC(=O)CCC(=O)O)c1 | 3.59%
O=C(Nc1ccc(-c2cn3c(n2)SCC3)cc1)c1ccc2ccccc2n1 | 4.3%
CCCCNC(=O)CCC(=O)N1CCN(C(c2ccccc2)c2ccccc2)CC1.Cl | -7.34%
CC(NC(=O)Cc1ccc(F)cc1)c1ccc(F)cc1 (stereo not drawn) | 6.16%
CS(=O)(=O)c1ccc2nc(N)sc2c1 | 0.827%
COC(=O)c1cnn(-c2ccccc2)c1N | 8.06%
C/C(=N\NC(=O)c1cccc(Cl)c1)c1cccc(NC(=O)C(C)C)c1 | 5.63%
CCC(Sc1nc(=O)cc(N)n1CCc1ccccc1)C(=O)Nc1ccccc1C#N (stereo not drawn) | 0.121%
CCC[C@H]1CCCC/C=C\CCCC(=O)OCCN1C(=O)OC(C)(C)C | 4.48%
COC(=O)c1ccccc1NC(=O)c1ccc(-c2ccccc2F)o1 | -3.45%
O=C1CC(N2CCN(S(=O)(=O)c3ccccc3)CC2)C(=O)N1c1ccccc1 (stereo not drawn) | 1.87%
Cc1nc2ncnn2c(C)c1CCC(=O)N1CCc2ccccc2C1 | -63.4%
Br.CCS(=O)CCSC(=N)N (stereo not drawn) | 19.2%
COc1cc(S(=O)(=O)N2CCN(c3ccc(F)cc3)CC2)ccc1Cl | 0.968%
Cc1ccccc1Nc1c(-c2ccccc2)nc2ncccn12 | -15.4%
O=C(NCCN1CCN(c2ccccc2)CC1)Nc1ccccc1Cl | -43.3%
COc1ccccc1C(=O)N/C(=C\c1ccc(Br)cc1)C(=O)NCCCO | -34.3%
COc1ccc(OC)c(CCNC(=O)c2ccc3c(=O)[nH]c4c(C(=O)NC(C)C)sc(=S)n4c3c2)c1 | 21.2%
O=C(N/N=C/c1cccc([N+](=O)[O-])c1)C1CC(=O)N(c2ccc(Br)cc2)C1 (stereo not drawn) | -46.6%
CC(C)c1ccccc1-n1c(-c2cccnc2)n[nH]c1=S | 10.1%

From PMC4336329 (PLoS ONE, 2015)
